# According to PubChem BioAssay (NCI):
# More than one record can exist for a structure, and the calls need not agree.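 Percent growth is the endpoint: 0 to 100 indicates growth inhibition (40 means 60% inhibition), 0 means no net growth, and negative values indicate cell death.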 A number of entries come with more than one value. They are shown here; other results are not. The calls were made as follows: active = growth percent below 10; inactive = the rest. The source may hold further records. This drug was run again and again over the years, at the concentration stated with the values; each value is one run. Brackets with × count equal records among those shown.
# How the values were obtained:
# [1] = system: UACC-257 melanoma; test: NCI-60 one-dose screen, 48 h (100 = growth as untreated, 0 = no growth, -100 = all killed); settings: 2.5 mM
# [2] = system: M14 melanoma; test: as above; settings: 2.5 mM
compound,measurement,setting,value
O=c1[nH]cc(F)c(=O)[nH]1,growth,[1]; runs of 1995,"inactive: 30.5, 29.1, 17.3 (2×), 15.1, 35.9, 18, 32.7, 29.8, 27.3, 15.9, 22 (2×), 13.9 (2×), 26.2, 14.7, 23.8, 20, 21.6, 26.9, 34.1, 31.2, 22.5, 18.1, 12.6, 13.5, 10.3% and active: 9, 8.34, 6.23, -19.5, -5.27, -1.24, 5.31, -47.3, -8.14, 7.04, 5.27%"
same,growth,[1]; runs of 1996,"inactive: 30.5, 37.8, 35.7, 10.3 (2×), 21.7, 14, 33.5, 34.6 (2×), 25, 40.6, 19.1, 38.8, 34.1, 29.5, 43.8, 23.4, 35.4, 32.8 (3×), 31.9, 21.6, 20, 28.3, 43.9, 17.9, 23.1, 102, 34.2, 22.2, 55.6, 19.9, 26.1, 22.3, 31.1, 39.2, 62.6, 46, 32.7, 21.1, 17.3, 25.5, 21.5, 18, 27.2, 28.9, 39.5, 19.6% and active: 5.6, -47.9, 6.33, -8.39, 7.31, -3.44, -12.7, 6.7%"
same,growth,[1]; runs of 1997,"inactive: 25.5, 21.4, 45, 26.6, 10.3, 25.9, 17.6, 23.1, 20.8, 15.5 (2×), 19.4 (2×), 29.5, 20.9, 16.3, 25.1, 30.8, 36.6 (2×), 35.4, 26.8, 28.2, 24.5, 52.7, 25.6, 11.2, 12.9, 32.2, 19.3, 30.5, 22, 21.2, 22.8, 16.5, 21.7, 22.1, 25.8, 23.7% and active: 9.48, -16.7, 8.14, -6.31, 7%"
same,growth,[1]; runs of 1998,"inactive: 10.2, 22.5, 23.2, 18.1 (2×), 36.6, 49.5, 33.2, 34.6, 48.6, 33.1, 36.1, 23.1, 33.5, 43.2, 15.8, 22.8, 14.1% and active: 3.84, -11.2, -100, 5.82%"
same,growth,[1]; runs of 1999,"inactive: 56.4%, 16.4%, 54.4% and active: -30.2, -100 (2×), -70.6, -33.1, -68.9, -59.4, -54.7, -65.2, -84.5, -80.1%"
same,growth,[1]; runs of 2000,"active: -84.2, -58.3, 0.358, -40.3%"
same,growth,[2]; runs of 1991,"inactive: 25.6, 19, 37.9, 17.1, 28.8, 21.1, 43.1, 35.9, 37.1, 26.8, 24.2, 39.2, 25.5, 31.2, 35.5, 21.4, 43.5, 17, 28.7% and active: 8.16%"
same,growth,[2]; runs of 1992,"inactive: 32.3 (2×), 26.3, 26.1 (3×), 29.5, 41.2 (2×), 13.3, 30.4, 32.9, 41.9, 32.5, 33.2, 27.5, 44.6, 54.9 (2×), 23.9, 14.1, 36.8, 53.5, 44.2, 31.2, 15.7, 22.1, 31.3 (2×), 19.1 (2×), 28.1, 43.5, 30.5, 27.3, 33.6, 27.9, 29.2, 45.2, 33.4, 35, 52, 28.4, 25.2 (2×), 12.6, 47.2, 27.1, 44.4, 22.4, 23, 24.2 (2×), 24.3, 32, 18, 30.3, 12.4, 26.8, 15.4, 19.8, 33.3, 24, 33.7 (2×), 38.7, 24.4, 19.3, 11.8, 23.6, 40.5, 26.9, 37.3, 18.7, 36.4, 36.6, 23.5 (2×), 23.8, 29.1, 12.5, 17.5, 27.2, 30.1, 38.1, 23.1, 47.4, 11.6, 33.5, 32.4 (2×), 35.6, 33.9, 23.4, 20.3, 25.6, 29.6 (2×), 39.3, 22.7, 33.8, 39.4, 41.7, 15.1, 26.7, 45.1, 18.1, 24.9, 29.4, 57.4, 26% and active: -19.7%, 9.7%, 7.57%"
same,growth,[2]; runs of 1993,"active: 8.12%, 9.1% and inactive: 27.1, 12.1, 33.2, 44.2, 21.1, 34.7, 31.2, 39 (2×), 45, 37.4, 30, 15.1, 40.7, 39.1, 46.9, 30.4 (2×), 20.7, 29.9, 47.1, 47.6, 23.8, 32.5 (2×), 33.8, 27.6, 39.8, 21, 32.3, 53.6, 33.3 (2×), 17.9, 94.9, 50.2, 18.2, 82.9, 19.5, 31.6 (2×), 11.9, 20.6, 52.4, 40.3, 33%"
same,growth,[2]; runs of 1994,"inactive: 16.3, 33.1 (2×), 31.6, 35.2, 34.7, 46, 36.4, 28.9, 35, 40.5, 33.6, 17.2, 33.4, 31.9, 44.6, 30.3, 36 (2×), 37.8, 14.5, 32.9, 11.4, 28.3, 31.1, 33.2, 29.9, 46.1, 28.5, 30.9, 34.3, 30.8, 16.2, 43.2%"
same,growth,[2]; runs of 1995,"inactive: 29 (2×), 16.6, 24.7, 21.2, 27.4, 37.7, 20.8, 35.2, 32.8, 27.3, 25.9, 39, 23.8, 20.6, 19.5, 34.3, 46.8, 45.3, 38.7, 35.4, 30.3, 31.8, 37.3, 19.2, 22.5, 30.6, 19.6, 23.2, 15, 41% and active: -31.3%, -3.6%, 6.82%"
same,growth,[2]; runs of 1996,"inactive: 48.3, 36.1, 22.3, 35, 20.8, 22.9, 26.3, 28.5, 45.6, 26.4, 33.1, 23, 36.4, 32.6, 29.8 (2×), 31.5, 35.6, 39.2 (2×), 31.9, 41.4, 26.5, 43.9, 25.7, 52.9, 35.3 (2×), 31.4, 32.1, 47.3, 44.2, 36.5, 46.3 (2×), 43.2 (2×), 40.7, 32.3, 41.3, 40.8, 32, 31.8, 40, 53.8, 36, 32.2, 22.8, 36.3, 39.9, 42.4, 58.2, 45.1, 60.5, 41.8, 35.2, 36.8, 37.6%"
same,growth,[2]; runs of 1997,"inactive: 36.7, 34.8 (2×), 38.7, 55.8, 40, 37.1, 48.9, 32.8, 46.1, 37.5 (2×), 40.4, 12.8, 41.6, 50.6, 48.3, 42.7, 23.5, 48.8, 26.1, 38.2, 39.6 (2×), 22.2, 46, 32.6, 43.5, 43.9, 33.8, 29.9, 39.2, 49.7, 34.9, 47.8, 46.8, 41.2, 37.6, 52.2, 39.3, 30.6, 33.5, 47, 46.9, 11.6% and active: -99.3%, 9.95%"
same,growth,[2]; runs of 1998,"inactive: 41.5, 32.6, 51.5, 34.3, 32.4, 43.2, 40.9, 55, 29.3, 32.9, 34.8, 14.7, 30.5, 29.7, 33.3, 26, 37.7, 45.7, 26.6, 28.4, 25.6, 25.9, 43.9, 33.5, 33% and active: -0.476%"
same,growth,[2]; runs of 1999,"inactive: 26.2, 34.6, 22.7, 29.8, 31.6% and active: 8.17, -100 (3×), -34.8, -35.5, -92.9, -54.3, 1.34, -75.8, -68.6, -57%"
